The test system of assay [1] is HSkMC (human skeletal muscle cells). Put plainly: cytotoxicity call (relative viability < 0.9). The settings on record: 10 µM.
For assay [2], the system named is S. aureus RN4220. Kind of assay: growth inhibition call (relative growth <= 0.2). The settings on record: 50 µM.

Here are results for 29 compounds from the antibiotic and cytotoxicity screens of Wong et al. (2023).

This is one part of the list.

In the case of `Cc1ccc(=O)n(-c2ccccc2)c1`, the cytotoxicity call in assay [1] was “inactive”. In assay [2], the growth inhibition call was “inactive”.
Regarding `COc1ccc(S(=O)(=O)Nc2ccc3c(c2)C(=O)N([C@H](C)CO)C[C@@H](C)[C@@H](CN(C)C(=O)CCC(F)(F)F)OCCCC[C@@H](C)O3)cc1`, the cytotoxicity call in assay [1] was “inactive”. In addition, the growth inhibition call in assay [2] was “inactive”.
For the compound `C[C@H]1CN([C@@H](C)CO)C(=O)c2cc(NS(=O)(=O)c3ccccc3)ccc2O[C@@H]1CN(C)Cc1ccncc1`, in assay [1], the cytotoxicity call is “inactive”. In assay [2], the growth inhibition call was “inactive”.
For the compound `COc1ccc(C#Cc2ccc([C@@H]3[C@@H](CO)N4CCCCN(S(=O)(=O)c5cn(C)cn5)C[C@H]34)cc2)cc1`, the cytotoxicity call in assay [1] is “active”. For the same compound, the growth inhibition call in assay [2] is “inactive”.
For `COC(=O)C1=C(C)NC(C)=C(C(=O)OC)C1c1ccccc1[N+](=O)[O-]`, in that order: “inactive” and “inactive”.
For `COc1ccc(S(=O)(=O)Nc2ccc3c(c2)C(=O)N([C@H](C)CO)C[C@@H](C)[C@H](CN(C)C(=O)C2CCCCC2)OCCCC[C@H](C)O3)cc1`, in that order: “inactive” and “inactive”.
`COc1cc(C(=O)OCCN2CCCN(CCOC(=O)c3cc(OC)c(OC)c(OC)c3)CC2)cc(OC)c1OC`: the cytotoxicity call in assay [1] was “inactive”. For the same compound, in assay [2], the growth inhibition call is “inactive”.
As for `C[C@@H]1CN([C@@H](C)CO)C(=O)c2cccc(NS(C)(=O)=O)c2O[C@H]1CN(C)C(=O)Nc1ccccc1`, in assay [1], the cytotoxicity call was “inactive”. In addition, the growth inhibition call in assay [2] is “inactive”.
Turning to `CC(C)NC(=O)N(C)C[C@H]1Oc2ccc(NS(=O)(=O)c3ccccc3)cc2C(=O)N([C@@H](C)CO)C[C@H]1C`, in assay [1], the cytotoxicity call is “inactive”. Also, the growth inhibition call in assay [2] is “inactive”.
In the case of `C[C@@H]1CN([C@H](C)CO)C(=O)Cc2cc(NC(=O)Nc3ccc(F)cc3)ccc2O[C@H]1CN(C)Cc1ccc(Cl)c(Cl)c1`, the cytotoxicity call in assay [1] was “active”. The growth inhibition call in assay [2] is “inactive”.
As for `O=C(C[C@H]1CC[C@@H]2[C@H](COC[C@H](O)CN2S(=O)(=O)c2ccc(F)cc2)O1)N[C@H]1CCN(Cc2ccccc2)C1`, the cytotoxicity call in assay [1] was “inactive”. In addition, the growth inhibition call in assay [2] is “inactive”.
On to `C[C@H](CO)N1C[C@H](C)[C@@H](CN(C)C(=O)Nc2cccc3ccccc23)Oc2ccc(NS(=O)(=O)c3cccs3)cc2CC1=O`, for which, in assay [1], the cytotoxicity call was “inactive”. In assay [2], the growth inhibition call is “inactive”.
Turning to `CC(C)NC(=O)Nc1ccc2c(c1)CC(=O)N([C@H](C)CO)C[C@@H](C)[C@H](CN(C)Cc1ccc(-c3ccccc3)cc1)O2`, the cytotoxicity call in assay [1] is “inactive”. Besides, in assay [2], the growth inhibition call is “inactive”.
Consider `C[C@@H]1CN([C@H](C)CO)C(=O)c2cc(NC(=O)CCC(F)(F)F)ccc2O[C@@H](C)CCCCO[C@H]1CN(C)Cc1ccc(C(=O)O)cc1`, for which, in assay [1], the cytotoxicity call is “inactive”. Moreover, in assay [2], the growth inhibition call was “inactive”.
On to `COC(=O)CCCCCNc1n[nH]c(=O)[nH]c1=O`, for which, in assay [1], the cytotoxicity call was “inactive”. Further, in assay [2], the growth inhibition call was “inactive”.
Regarding `C[C@@H]1CN([C@@H](C)CO)C(=O)Cc2cc(NC(=O)Cc3cn(C)c4ccccc34)ccc2O[C@H]1CN(C)Cc1ccc(Cl)c(Cl)c1`, the cytotoxicity call in assay [1] is “inactive”. The growth inhibition call in assay [2] is “inactive”.
As for `O=C(O)CC1CCOCC1`, the cytotoxicity call in assay [1] was “inactive”. The growth inhibition call in assay [2] was “inactive”.
For `C[C@H](CO)N1C[C@H](C)[C@H](CN(C)C(=O)Nc2ccc(C(F)(F)F)cc2)Oc2ncc(-c3ccc(C#N)cc3)cc2C1=O`, in assay [1], the cytotoxicity call was “inactive”. In assay [2], the growth inhibition call is “inactive”.
For the compound `O=C(C[C@H]1CC[C@@H]2[C@H](COC[C@H](O)CN2C(=O)c2cnccn2)O1)N1CCN(c2ccccc2)CC1`, in assay [1], the cytotoxicity call was “inactive”. In assay [2], the growth inhibition call is “inactive”.
As to `C[C@H]1CN([C@@H](C)CO)C(=O)c2cc(NC(=O)Cn3cnnn3)ccc2O[C@@H]1CN(C)S(=O)(=O)c1cn(C)cn1`, the cytotoxicity call in assay [1] is “inactive”. Besides, the growth inhibition call in assay [2] is “inactive”.
`COc1ccc(C#Cc2cnc3c(c2)C(=O)N([C@H](C)CO)C[C@@H](C)[C@@H](CN(C)C(=O)CN(C)C)O3)cc1`: the cytotoxicity call in assay [1] was “inactive”. In assay [2], the growth inhibition call was “inactive”.
In the case of `C[C@H](NC(=O)N(C)C[C@H]1OCc2ccccc2-c2ccccc2C(=O)N([C@H](C)CO)C[C@@H]1C)c1ccccc1`, the cytotoxicity call in assay [1] is “inactive”. Moreover, the growth inhibition call in assay [2] is “inactive”.
Turning to `O=C(CCCCC(=O)N/N=C/[C@H](O)[C@@H](O)[C@H](O)CO)NO`, the cytotoxicity call in assay [1] is “inactive”. Also, in assay [2], the growth inhibition call was “inactive”.
For the compound `C[C@H](CO)N1C[C@H](C)[C@H](CN(C)S(=O)(=O)c2ccc(Cl)cc2)OCCCC[C@H](C)Oc2ccc(NS(=O)(=O)c3cccs3)cc2C1=O`, the cytotoxicity call in assay [1] was “inactive”. Besides, the growth inhibition call in assay [2] was “inactive”.
Take `C[C@H]1CN([C@@H](C)CO)S(=O)(=O)c2ccc(-c3cccnc3)cc2O[C@@H]1CN(C)C(=O)NC1CCCC1`: the cytotoxicity call in assay [1] is “inactive”. The growth inhibition call in assay [2] was “inactive”.
As to `C[C@@H]1CN(S(=O)(=O)N2CCN(C(=O)c3[nH]nc4ccccc34)CC2)C[C@H](C)O1`, in assay [1], the cytotoxicity call is “inactive”. The growth inhibition call in assay [2] was “inactive”.
Take `C[C@H]1CN([C@@H](C)CO)C(=O)c2cccc(NC(=O)C3CCCCC3)c2O[C@H]1CN(C)Cc1ccc(-c2ccccc2)cc1`: in assay [1], the cytotoxicity call is “inactive”. The growth inhibition call in assay [2] was “inactive”.
`NNC(=O)c1ccc2c(=O)[nH][nH]c(=O)c2c1`: the cytotoxicity call in assay [1] is “inactive”. Also, the growth inhibition call in assay [2] is “inactive”.
On to `C[C@@H]1CN([C@H](C)CO)S(=O)(=O)c2ccc(C#C[C@@H](C)O)cc2O[C@H]1CN(C)C(=O)c1ccccc1`, for which the cytotoxicity call in assay [1] is “inactive”. The growth inhibition call in assay [2] was “inactive”.
